Measured values: article PMC4336329 (PLoS ONE, 2015)
The campaign covered roughly 310,000 compounds. About 2,200 (0.71%) showed an effect of 50% or more. The effect is printed as a negative number. Some of the results follow.

The molecules below were run against human ether-à-go-go-related gene (hERG) potassium channel (human, UniProt Q12809) (assay: primary screen, population patch clamp on CHO cells stably expressing hERG).
human ether-à-go-go-related gene (hERG) potassium channel, sequence (Q12809 whole entry, looked up): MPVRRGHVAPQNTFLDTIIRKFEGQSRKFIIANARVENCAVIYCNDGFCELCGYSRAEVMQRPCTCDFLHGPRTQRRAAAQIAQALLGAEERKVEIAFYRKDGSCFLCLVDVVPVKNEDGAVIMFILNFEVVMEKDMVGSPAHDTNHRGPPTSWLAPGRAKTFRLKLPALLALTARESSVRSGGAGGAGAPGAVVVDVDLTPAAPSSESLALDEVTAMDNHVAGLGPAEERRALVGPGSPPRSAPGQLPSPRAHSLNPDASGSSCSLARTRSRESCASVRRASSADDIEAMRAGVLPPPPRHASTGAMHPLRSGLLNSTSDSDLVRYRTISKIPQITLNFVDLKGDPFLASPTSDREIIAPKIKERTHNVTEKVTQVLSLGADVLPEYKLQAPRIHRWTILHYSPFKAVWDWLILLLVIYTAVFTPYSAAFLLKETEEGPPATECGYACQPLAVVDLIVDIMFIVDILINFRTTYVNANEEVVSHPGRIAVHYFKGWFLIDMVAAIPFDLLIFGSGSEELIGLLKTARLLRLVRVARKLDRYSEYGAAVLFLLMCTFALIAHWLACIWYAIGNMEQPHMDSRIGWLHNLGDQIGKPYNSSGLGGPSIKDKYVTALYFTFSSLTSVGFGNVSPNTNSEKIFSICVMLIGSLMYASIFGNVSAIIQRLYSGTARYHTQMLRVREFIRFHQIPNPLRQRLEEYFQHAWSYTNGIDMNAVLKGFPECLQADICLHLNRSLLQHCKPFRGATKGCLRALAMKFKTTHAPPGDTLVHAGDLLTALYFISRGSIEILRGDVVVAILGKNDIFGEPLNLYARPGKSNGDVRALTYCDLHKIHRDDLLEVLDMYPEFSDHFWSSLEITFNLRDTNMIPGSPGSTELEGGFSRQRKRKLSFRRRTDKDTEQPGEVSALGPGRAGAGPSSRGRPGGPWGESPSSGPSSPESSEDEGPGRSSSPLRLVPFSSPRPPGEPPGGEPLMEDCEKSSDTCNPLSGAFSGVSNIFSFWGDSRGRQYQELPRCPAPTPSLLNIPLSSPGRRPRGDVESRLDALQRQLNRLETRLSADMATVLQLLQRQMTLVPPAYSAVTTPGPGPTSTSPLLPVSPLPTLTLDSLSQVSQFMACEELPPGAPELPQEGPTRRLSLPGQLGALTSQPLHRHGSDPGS

SMILES | hERG current change (%, negative = inhibition) at 1uM [%]
Cc1coc(NC(=O)CSc2nc(-c3ccc(Cl)cc3)cc(C(F)(F)F)c2C#N)n1 | 3.16
CCC(C)[C@H](NC(=O)N1CCC(C)CC1)C(=O)OC (stereo partly shown) | 15.4
CC1CCN(CCCNC(=O)C2CCC(=O)N2C2CCCC2)CC1 (stereo not shown) | -2.34
COc1ccc(C(=O)COC(=O)C2CCN(S(=O)(=O)c3cccc4cccnc34)CC2)cc1 | 11.2
Cc1nn(Cc2ccccc2Cl)c2sc(C(=O)NC(C)(C)C)cc12 | 19
CCOC(=O)Cn1nc(C(F)F)c(Br)c1C | 25.9
Cc1ccnc(SCc2ccc([N+](=O)[O-])cc2)n1 | -1.04
COc1ccc(NC(=O)CN2C(=O)NC(CC(C)C)C2=O)cc1S(=O)(=O)N1CCOCC1 (stereo not shown) | 10.1
N#CC1=C(S)N(c2ccccc2)C(c2ccc(-c3cc(Cl)ccc3Cl)o2)NC1=O (stereo not shown) | 8.29
NC(=O)c1c(NC(=O)c2ccccc2F)sc2c1CCCC2 | 15.6
CN(C)C1=NCCN1CCCC1CCCC1 | -22.6
CN(C)S(=O)(=O)c1ccc(C(=O)Oc2ccccc2)cc1 | 7.36
Cc1c(NC(=O)CCC(=O)N2CCOCC2)c(=O)n(-c2ccccc2)n1C | 4.78
CC1CCC(C(C)C)C(OCC(O)CNC(C)C)C1.Cl (stereo not shown) | 14.1
Cc1ccc(CCNC(=O)Cn2ncc3c([nH]c4ccccc43)c2=O)cc1 | 13.2
C/C(=N/NC(=O)CNC(=O)COc1ccccc1)c1ccc(Cl)cc1 | 14.6
COc1cccc(Nc2nnc(SCc3cc([N+](=O)[O-])cc4c3OCOC4)s2)c1 | 4.46
O=C(CN1C(=O)S/C(=C\C=C\c2ccccc2)C1=O)Nc1ccc(O)cc1 | 8.04
N#Cc1cc2c(ccc3ccccc32)oc1=O | 14.4
COc1ccc(CNCc2c(F)cccc2F)cc1OC.O=C(O)C(=O)O | 14.6
COc1cccc(CN(C)C(=O)c2ccccc2Sc2ccccc2C#N)c1OC | 31.6
CCc1ccccc1NC(=O)CSc1nnc(-c2ccncc2)o1 | 7.1
NS(=O)(=O)c1ccc(CNC(=O)c2scc3c2CCCC3)cc1 | 5.74
Cc1ccc(C(=O)Nc2ccc(Cl)cc2C)c(Cl)c1 | 11.4
Cc1ccc(NC(=O)/C=C\C(=O)O)c([N+](=O)[O-])c1 | 12.3
